Results on 26 compounds are retold here after US20200291008A1 (GLAXOSMITHKLINE INTELLECTUAL PROPERTY DEVELOPMENT LIMITED, priority 2017, published 2020).

Where only a bound is given, the exact number is not on record here.

The target of experiment [1] is indoleamine 2, 3-dioxygenase (IDO1) (Homo sapiens, UniProt P14902). Description: IDO1 PBMC RapidFire MS assay (kynurenine detection by mass spectrometry). It is filed as cell-based. Particulars: human PBMC stimulated with IFN-γ and LPS, 2 days, read-out: PBMC pIC50 (converted). The protocol: Compounds of the present invention were tested via high-throughput cellular assays utilizing detection of kynurenine via mass spectrometry and cytotoxicity as end-points. […] Compounds with IDO1 inhibitory properties decreased the amount of kynurenine produced by the cells via the tryptophan catabolic pathway. Cellular toxicity due to the effect of compound treatment was measured using CellTiter-Glo® reagent (CTG) (Promega Corporation, Madison, Wis.), which is based on luminescent detection of ATP, an indicator of metabolically active cells.
In preparation for the assays, test compounds were serially diluted 3-fold in DMSO from a typical top concentration of 1mM or 5 mM and plated at 0.5 μL in 384-well, polystyrene, clear bottom, tissue culture treated plates with lids (Greiner Bio-One, Kremsmunster, Austria) to generate 11-point dose response curves. Low control wells (0% kynurenine or 100% cytotoxicity) contained either 0.5 μL of DMSO in the presence of unstimulated (-IFN-γ/-LPS) PBMCs for the mass spectrometry assay or 0.5 μL of DMSO in the absence of cells for the cytotoxicity assay, and high control wells (100% kynurenine or 0% cytotoxicity) contained 0.5 μL of DMSO in the presence of stimulated (+IFN-γ/+LPS) PBMCs for both the mass spectrometry and cytotoxicity assays.
Frozen stocks of PBMCs were washed and recovered in RPMI 1640 medium (Thermo Fisher Scientific, Inc., Waltham, Mass.) supplemented with 10% v/v heat-inactivated fetal bovine serum (FBS) (Thermo Fisher Scientific, Inc., Waltham, Mass.), and 1× penicillin-streptomycin antibiotic solution (Thermo Fisher Scientific, Inc., Waltham, Mass.). The cells were diluted to 1,000,000 cells/mL in the supplemented RPMI 1640 medium. 50 μL of either the cell suspension, for the mass spectrometry assay, or medium alone, for the cytotoxicity assay, were added to the low control wells, on the previously prepared 384-well compound plates, resulting in 50,000 cells/well or 0 cells/well respectively. IFN- y and LPS were added to the remaining cell suspension at final concentrations of 100 ng/ml and 50 ng/ml respectively, and 50 μL of the stimulated cells were added to all remaining wells on the 384-well compound plates. The plates, with lids, were then placed in a 37° C, 5% CO2 humidified incubator for 2 days.
Following incubation, the 384-well plates were removed from the incubator and allowed to equilibrate to room temperature for 30 minutes. For the cytotoxicity assay, CellTiter-Glo® was prepared according to the manufacturer's instructions, and 40 μL were added to each plate well. After a twenty minute incubation at room temperature, luminescence was read on an EnVision® Multilabel Reader (Perkin Elmer Inc., Waltham, Mass.). For the mass spectrometry assay, 10 μL of supernatant from each well of the compound-treated plates were added to 40 μL of acetonitrile, containing 10 μM of an internal standard for normalization, in 384-well, polypropylene, V-bottom plates (Greiner Bio-One, Kremsmunster, Austria) to extract the organic analytes. Following centrifugation at 2000 rpm for 10 minutes, 10 μL from each well of the acetonitrile extraction plates were added to 90 μL of sterile, distilled H2O in 384-well, polypropylene, V-bottom plates for analysis of kynurenine and the internal standard on the RapidFire 300 (Agilent Technologies, Santa Clara, Calif.) and 4000 QTRAP MS (SCIEX, Framingham, Mass.). MS data were integrated using Agilent Technologies' RapidFire Integrator software, and data were normalized for analysis as a ratio of kynurenine to the internal standard.

In experiment [2] the test system is human peripheral blood mononuclear cells (PBMC). Description: PBMC cytotoxicity assay (CellTiter-Glo). Format: cell-based. The following applies: 48 h, human PBMC stimulated with IFN-γ and LPS, 2 days, read-out: PBMC TOX pIC50 (converted).

Sequence of UniProt P14902 (P14902 whole entry): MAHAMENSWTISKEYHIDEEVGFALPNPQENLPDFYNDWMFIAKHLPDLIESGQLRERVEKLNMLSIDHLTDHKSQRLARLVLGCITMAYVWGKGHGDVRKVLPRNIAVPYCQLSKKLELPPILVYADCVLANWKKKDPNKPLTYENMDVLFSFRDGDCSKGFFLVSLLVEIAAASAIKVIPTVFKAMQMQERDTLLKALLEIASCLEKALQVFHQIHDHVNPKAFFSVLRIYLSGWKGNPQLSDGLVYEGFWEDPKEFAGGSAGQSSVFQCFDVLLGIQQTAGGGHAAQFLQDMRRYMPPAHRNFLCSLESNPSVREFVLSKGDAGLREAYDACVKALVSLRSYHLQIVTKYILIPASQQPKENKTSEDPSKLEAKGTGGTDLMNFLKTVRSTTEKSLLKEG

Take `O=c1oc2ccccc2n1C[C@H]1CC[C@H](c2ccnc3ccccc32)CC1` [Example 39]: the IC50 in experiment [1] is 2.51 µM; in experiment [2] it was more than 10 µM.

Regarding `CC(C)N(CCO)C(=O)CC1CCC(c2ccnc3ccccc23)CC1` (stereo not shown) [Example 12, N-(2-hydroxyethyl)-N-isopropyl-2-(4-(quinolin-4-yl)cyclohexyl) acetamide], the IC50 in experiment [1] and in experiment [2] was more than 10 µM throughout.

For `CC(C)C(NC(=O)C[C@H]1CC[C@@H](c2ccnc3ccccc32)CC1)C(C)C` [Example 7], the IC50 in experiment [1] is 0.158 µM; in experiment [2], more than 10 µM.

For `CC(CCO)NC(=O)C[C@H]1CC[C@@H](c2ccnc3ccccc32)CC1` (stereo partly shown) [Example 11], the IC50 in experiment [1] and in experiment [2] was more than 10 µM each time.

In the case of `C[C@H]1CC[C@H](NC(=O)C[C@H]2CC[C@@H](c3ccnc4ccccc43)CC2)CC1` [Example 5], the IC50 was 2.51 µM in experiment [1] and more than 10 µM in experiment [2].

`CC(C)C(CO)NC(=O)C[C@H]1CC[C@@H](c2ccnc3ccccc32)CC1` (stereo partly shown) [Example 9]: the IC50 in experiment [1] was more than 3.16 µM; in experiment [2], more than 10 µM.

On to `C[C@@H](c1nc(-c2ccccc2Cl)c[nH]1)C1CCC(c2ccnc3ccccc23)CC1` (stereo partly shown) [Example 33], for which the IC50 in experiment [1] is 0.0794 µM; in experiment [2] it was more than 10 µM.

As for `c1ccc2[nH]c(C[C@H]3CC[C@@H](c4ccnc5ccccc54)CC3)nc2c1` [Example 17], the IC50 was 0.1 µM in experiment [1] and more than 10 µM in experiment [2].

For the compound `CC(C)Cc1coc(C[C@H]2CC[C@@H](c3ccnc4ccccc43)CC2)n1` [Example 27], the IC50 in experiment [1] was 1.58 µM; in experiment [2], more than 10 µM.

As for `CC(CCO)NC(=O)C[C@H]1CC[C@H](c2ccnc3ccccc32)CC1` (stereo partly shown) [Example 10], the IC50 in experiment [1] is 3.98 µM; in experiment [2], more than 10 µM.

In the case of `C[C@@H](c1nc(-c2cccc(Cl)c2)c[nH]1)[C@H]1CC[C@@H](c2ccnc3ccccc32)CC1` [Example 35], the IC50 was 0.158 µM in experiment [1] and more than 10 µM in experiment [2].

For `c1ccc2oc(C[C@H]3CC[C@@H](c4ccnc5ccccc54)CC3)nc2c1` [Example 22, 2-(((1s,4s)-4-(quinolin-4-yl)cyclohexyl)methyl)benzo[d]oxazole], the IC50 in experiment [1] is 3.98 µM; in experiment [2], more than 10 µM.

Take `O=c1[nH]c2ccccc2n1C[C@H]1CC[C@H](c2ccnc3ccccc32)CC1` [Example 41]: the IC50 in experiment [1] is 0.316 µM; in experiment [2], more than 10 µM.

Consider `O=C(NCc1ccccc1)[C@H]1CC[C@@H](c2ccnc3ccccc32)CC1` [Example 46], for which the IC50 in experiment [1] was 1.26 µM; in experiment [2] it was more than 10 µM.

With `CC(C)[C@@H](NC(=O)C[C@H]1CC[C@@H](c2ccnc3ccccc32)CC1)C(N)=O` [Example 16], the IC50 in experiment [1] and in experiment [2] was more than 10 µM each time.

Consider `c1ccc(-c2coc(C[C@H]3CC[C@@H](c4ccnc5ccccc54)CC3)n2)cc1` [Example 25], for which the IC50 in experiment [1] is 2 µM; in experiment [2] it was more than 10 µM.

In the case of `CC(C)c1coc(C[C@H]2CC[C@H](c3ccnc4ccccc43)CC2)n1` [Example 28], the IC50 in experiment [1] and in experiment [2] was more than 10 µM each time.

Turning to `c1ccc(-c2c[nH]c(C[C@H]3CC[C@@H](c4ccnc5ccccc54)CC3)n2)cc1` [Example 31], the IC50 in experiment [1] was 0.0794 µM; in experiment [2], more than 10 µM.

Take `O=c1oc2ccccc2n1C[C@H]1CC[C@@H](c2ccnc3ccccc32)CC1` [Example 38, 3-((cis-4-(quinolin-4-yl)cyclohexyl)methyl)benzo[d]oxazol-2(3H)-one]: the IC50 is 2 µM in experiment [1] and more than 10 µM in experiment [2].

Take `C[C@@H](c1nc2cccc(Cl)c2[nH]1)C1CCC(c2ccnc3ccccc23)CC1` (stereo partly shown) [Example 21]: the figures for the IC50 in experiment [1] and in experiment [2] were 0.0501 µM and more than 10 µM, respectively.

`CC(C)c1coc(C[C@H]2CC[C@@H](c3ccnc4ccccc43)CC2)n1` [Example 29]: the IC50 in experiment [1] is 2 µM; in experiment [2], more than 10 µM.

On to `CC(C)c1cn(C[C@H]2CC[C@@H](c3ccnc4ccccc43)CC2)cn1` [Example 42, 4-(cis-4-((4-isopropyl-1H-imidazol-1-yl)methyl)cyclohexyl)quinoline], for which the IC50 in experiment [1] was 3.98 µM; in experiment [2] it was more than 10 µM.

On to `c1ccc2oc(C[C@H]3CC[C@H](c4ccnc5ccccc54)CC3)nc2c1` [Example 23, 2-(((1 r, 4r)-4-(quinolin-4-yl)cyclohexyl)methyl)benzo[d]oxazole], for which the IC50 in experiment [1] and in experiment [2] was more than 10 µM in each case.

For `c1ccc(-c2c[nH]c(C[C@H]3CC[C@H](c4ccnc5ccccc54)CC3)n2)cc1` [Example 30, 4-(trans-4-((4-ohenv1-1H-imidazol-2-yl)methyl)cyclohexyl)quinoline], the figures for the IC50 in experiment [1] and in experiment [2] were 1.26 µM and more than 10 µM, respectively.

For `c1ccc2[nH]c(C[C@H]3CC[C@H](c4ccnc5ccccc54)CC3)nc2c1` [Example 18], the IC50 is 1.58 µM in experiment [1] and more than 10 µM in experiment [2].

With `C[C@@H](c1nc(-c2ccc(Cl)cc2)c[nH]1)[C@H]1CC[C@@H](c2ccnc3ccccc32)CC1` [Example 34], the figures for the IC50 in experiment [1] and in experiment [2] were 0.501 µM and more than 10 µM, respectively.
